Experimental findings from the RNAGym collection of RNA variant scans (doi:10.7554/elife.90254) are described below.

Sequences and labels used below:
B1: LINE1-mini (parent)
chain: GGCAGAGCUCAACACAGCGUGGCAAAGUGGCUGUGGCUAGACUGCC

Read counts are not given, so values of variants with three or more changes are uncertain.

The data set covers variants of B1. The data set is described as follows: self-cleavage, relative activity (ratio to wild type); higher = more cleavage; in vitro, sequencing; the parent is a self-cleaving ribozyme.
Consider GGCAGAGCUCAACACAGCGUGGCAAAGUUGCUGUGGCCAGACUGCU [G29U U38C C46U], for which the self-cleavage worked out at 1.48.

Take GGCAGAGCUCAACACAGCGUGGCAAAGUUCCUGUGGCUAGAUUGUC [G29U G30C C42U C45U]: the self-cleavage turned out to be 0.05.

As for GGCAGAGCUCAACACAGCGUGGCAAAGUUGCUGGGGUCAGACUGAG [G29U U34G C37U U38C C45A C46G], the self-cleavage was determined as 0.07.

As to GGCAGAGCUCAACACAGCGUGGCAAAGUCGCUGUGGCAAGAUUGCC [G29C U38A C42U], the self-cleavage amounted to 0.11.

Take GGCAGAGCUCAACACAGCGUGGCAAAGUGACUGUGGCUAGAUUCCC [G30A C42U G44C]: the self-cleavage is 0.08.

With GGCAGAGCUCAACACAGCGUGGCAAAGUUGCUGCGUCUAGACUGCC [G29U U34C G36U], the self-cleavage is 0.08.

Regarding GGCAGAGCUCAACACAGCGUGGCAAAGUCGCUGUGGCCAGACUGUC [G29C U38C C45U], the self-cleavage turned out to be 0.26.

As for GGCAGAGCUCAACACAGCGUGGCAAAGUCGCUGUGGCUAUACUGGC [G29C G40U C45G], the self-cleavage was 0.12.

Regarding GGCAGAGCUCAACACAGCGUGGCAAAGUCGCCAUCGCUAGUCGGGG [G29C U32C G33A G35C A41U U43G C45G C46G], the self-cleavage was determined as 0.01.

For the variant GGCAGAGCUCAACACAGCGUGGCAAAGUGACUGUGACUUAACUGCC [G30A G36A A39U G40A], the self-cleavage is 0.62.

In the case of GGCAGAGCUCAACACAGCGUGGCAAAGUGACUGUGGGCAGACUGCC [G30A C37G U38C], the self-cleavage came out at 0.05.

Turning to GGCAGAGCUCAACACAGCGUGGCAAAGUUGCUAUUGCUAGACUGCC [G29U G33A G35U], the self-cleavage amounted to 0.04.

In the case of GGCAGAGCUCAACACAGCGUGGCAAAGUCGCUGAGGCUAGGCUGCC [G29C U34A A41G], the self-cleavage was determined as 0.03.

Take GGCAGAGCUCAACACAGCGUGGCAAAGUGACUGUCUCUAAACUGCC [G30A G35C G36U G40A]: the self-cleavage turned out to be 0.02.

As for GGCAGAGCUCAACACAGCGUGGCAAAGUUGCUGUGGUGGGACUGCC [G29U C37U U38G A39G], the self-cleavage came out at 0.01.

For GGCAGAGCUCAACACAGCGUGGCAAAGUUGCUCUGGCUAGAUUGCC [G29U G33C C42U], the self-cleavage was 0.09.

For GGCAGAGCUCAACACAGCGUGGCAAAGUUGCUGUGACUAGCCUGGC [G29U G36A A41C C45G], the self-cleavage came out at 0.03.

Consider GGCAGAGCUCAACACAGCGUGGCAAAGUUGCAGUGGCUAGACUGCU [G29U U32A C46U], for which the self-cleavage stood at 0.04.

For GGCAGAGCUCAACACAGCGUGGCAAAGUUGCUGUGGCUCCACUACC [G29U A39C G40C G44A], the self-cleavage turned out to be 0.02.

As to GGCAGAGCUCAACACAGCGUGGCAAAGUCGCAGGGGCUAGACUGCC [G29C U32A U34G], the self-cleavage worked out at 0.05.

On to GGCAGAGCUCAACACAGCGUGGCAAAGUCGCUGUGGCUAGGCUGUC [G29C A41G C45U], for which the self-cleavage was 0.49.

As for GGCAGAGCUCAACACAGCGUGGCAAAGUCGCUGUGGGGAGACUGAC [G29C C37G U38G C45A], the self-cleavage stood at 0.01.

Take GGCAGAGCUCAACACAGCGUGGCAAAGUAGCUGUGGCUAGACAACC [G29A U43A G44A]: the self-cleavage amounted to 0.11.

Turning to GGCAGAGCUCAACACAGCGUGGCAAAGUUGCUCUGGAUAGACUGCC [G29U G33C C37A], the self-cleavage stood at 0.05.

As to GGCAGAGCUCAACACAGCGUGGCAAAGUCGCUUUUGCUAGACUGCC [G29C G33U G35U], the self-cleavage was 0.17.

With GGCAGAGCUCAACACAGCGUGGCAAAGUUGCUGUGGCUAAACUGAC [G29U G40A C45A], the self-cleavage was found to be 0.02.

In the case of GGCAGAGCUCAACACAGCGUGGCAAAGUGAAUGUGGCUAGACUGCA [G30A C31A C46A], the self-cleavage turned out to be 0.13.

On to GGCAGAGCUCAACACAGCGUGGCAAAGUCGCAGUUGCUAGACUGCC [G29C U32A G35U], for which the self-cleavage came out at 0.03.

With GGCAGAGCUCAACACAGCGUGGCAAAGUCGCUGUGCCUGGACUGCC [G29C G36C A39G], the self-cleavage is 0.03.

Turning to GGCAGAGCUCAACACAGCGUGGCAAAGUCGCUGGGGCUAGACCGCC [G29C U34G U43C], the self-cleavage was 0.02.

Regarding GGCAGAGCUCAACACAGCGUGGCAAAGUUGCUGUUUCUAGACUGCC [G29U G35U G36U], the self-cleavage turned out to be 0.08.

For GGCAGAGCUCAACACAGCGUGGCAAAGUCGCUGUCGCUGGACUGCC [G29C G35C A39G], the self-cleavage is 0.06.

For GGCAGAGCUCAACACAGCGUGGCAAAGUUGGUUUGGCUAGACUGCC [G29U C31G G33U], the self-cleavage was 0.01.

Consider GGCAGAGCUCAACACAGCGUGGCAAAGUCGCUGUGUCUAGACUGCG [G29C G36U C46G], for which the self-cleavage is 0.02.

As to GGCAGAGCUCAACACAGCGUGGCAAAGUUGAUGUGGCCAGACUGCC [G29U C31A U38C], the self-cleavage worked out at 0.14.

Regarding GGCAGAGCUCAACACAGCGUGGCAAAGUGACUUUGGCUAAACUGCC [G30A G33U G40A], the self-cleavage was 0.02.

On to GGCAGAGCUCAACACAGCGUGGCAAAGUUGCUGUGGCUAGACAUCU [G29U U43A G44U C46U], for which the self-cleavage was found to be 0.03.

As for GGCAGAGCUCAACACAGCGUGGCAAAGUCGCUUUGGCUGGAGUGCC [G29C G33U A39G C42G], the self-cleavage was determined as 0.03.

Take GGCAGAGCUCAACACAGCGUGGCAAAGUCGCUGGGGGUAGACUGCC [G29C U34G C37G]: the self-cleavage is 0.

Take GGCAGAGCUCAACACAGCGUGGCAAAGUUGCUGUGCAUAGACUGCC [G29U G36C C37A]: the self-cleavage is 0.14.

Regarding GGCAGAGCUCAACACAGCGUGGCAAAGUCGCUGUGGUUAGACUGAC [G29C C37U C45A], the self-cleavage amounted to 0.01.

For GGCAGAGCUCAACACAGCGUGGCAAAGUCGCUGUGGCUAGCCUGCU [G29C A41C C46U], the self-cleavage amounted to 0.07.

Turning to GGCAGAGCUCAACACAGCGUGGCAAAGUUGCUGUGGUUAGACUGCU [G29U C37U C46U], the self-cleavage came out at 0.06.

Consider GGCAGAGCUCAACACAGCGUGGCAAAGUUGCUGUGGUUAGACUGCG [G29U C37U C46G], for which the self-cleavage is 0.05.

Regarding GGCAGAGCUCAACACAGCGUGGCAAAGUUGAUGUCGCUAGACUGCC [G29U C31A G35C], the self-cleavage was determined as 0.04.

Regarding GGCAGAGCUCAACACAGCGUGGCAAAGUCUCUUUGGCUAGACUGUC [G29C G30U G33U C45U], the self-cleavage worked out at 0.03.

As to GGCAGAGCUCAACACAGCGUGGCAAAGUCGCUGUUGCUUGACUGCU [G29C G35U A39U C46U], the self-cleavage is 0.04.

On to GGCAGAGCUCAACACAGCGUGGCAAAGUCGCUGUGGCUAAACCGCC [G29C G40A U43C], for which the self-cleavage was determined as 0.02.

In the case of GGCAGAGCUCAACACAGCGUGGCAAAGUCGCUGUGACUAGACUACC [G29C G36A G44A], the self-cleavage came out at 0.32.

With GGCAGAGCUCAACACAGCGUGGCAAAGUGAGUGUGGCUAUACCGCC [G30A C31G G40U U43C], the self-cleavage worked out at 0.1.

With GGCAGAGCUCAACACAGCGUGGCAAAGUCGCUGUGGCGGGAGUGCC [G29C U38G A39G C42G], the self-cleavage came to 0.01.

On to GGCAGAGCUCAACACAGCGUGGCAAAGUUGCUAUGGCUACACUGCC [G29U G33A G40C], for which the self-cleavage was determined as 0.06.

As to GGCAGAGCUCAACACAGCGUGGCAAAGUGAGUGUGGGCAGACUGCC [G30A C31G C37G U38C], the self-cleavage was found to be 0.01.

Turning to GGCAGAGCUCAACACAGCGUGGCAAAGUUGCUGUGGCUAGACAGGC [G29U U43A C45G], the self-cleavage was found to be 0.09.

Consider GGCAGAGCUCAACACAGCGUGGCAAAGUUGCUGUGGCUAGACGUCC [G29U U43G G44U], for which the self-cleavage worked out at 0.03.

For the variant GGCAGAGCUCAACACAGCGUGGCAAAGUUGCUGCGGCUAGACUUCC [G29U U34C G44U], the self-cleavage was 0.03.
